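96-well plates; 48 h exposure; 5 concentrations. Endpoints by linear interpolation between flanking doses. Not reached: highest tested concentration assigned. GI50 marks 50% less growth.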 Calls of active or inactive are those of the source. No stated cut-off is given here; in the data, active = GI50 up to about 1.1 µM and inactive = higher. A value given as a limit tells only on which side of the number the result lay.

The test system of this assay is NCI-H322M. As to the kind of experiment: DTP human tumour cell line panel, 48 h.
With `COC(=O)CCCC(=O)O`, the GI50 was inactive: > 100 µM.

For the compound `COP(=O)(OC)c1ccc(NCc2cc(O)ccc2O)cc1`, the GI50 is inactive: > 84.7 µM.

With `C(=N\c1nc2cc3sc(/N=C/c4ccccc4)nc3cc2s1)/c1ccccc1`, the GI50 is inactive: > 100 µM.

Consider `O=c1oc2c(Cl)cc(Cl)cc2cc1-c1cn2c(n1)sc1ccccc12`, for which the GI50 was inactive: 76 µM.

For the compound `CC1=C[C@@H]2Cc3occc3C(C)(C)[C@@H]2CC1`, the GI50 is inactive: 33.3 µM.

Turning to `O=C(CCN(C(=O)O)S(=O)(=O)c1ccc(NC(=O)c2ccccc2)cc1)Nc1ccccc1`, the GI50 was inactive: > 100 µM.

With `COc1cc(Nc2cnc3cc(F)c(F)cc3n2)cc(OC)c1OC`, the GI50 is inactive: > 100 µM.

Turning to `CC1(c2cccc(Cl)c2)CC(c2cccc(Cl)c2)=C(C#N)C(=C(C#N)C#N)N1` (stereo unspecified), the GI50 was inactive: 19.3 µM.

Regarding `CC1=CCC(C(C)(C)NC(=O)c2ccccc2)C/C1=N/O` (stereo unspecified), the GI50 was inactive: > 100 µM.

Take `CC(=O)OC1COC(N2C(=O)/C(=N\NC(N)=S)c3cc(Br)ccc32)C(OC(C)=O)C1OC(C)=O` (stereo unspecified): the GI50 is inactive: 52.8 µM.

As to `CC(C)=CC(Cc1ccccc1)S(=O)(=O)c1nc2ccccc2s1` (stereo unspecified), the GI50 was inactive: 20.5 µM.

For the compound `CCOC(=O)CN1C(=O)c2c(NC(=O)C(=O)O)cccc2S1(=O)=O`, the GI50 is inactive: > 100 µM.

Regarding `CCC/C(Cl)=N\OC(=O)Nc1ccc(OC(F)(F)F)cc1`, the GI50 is inactive: 20.1 µM.

Consider `Cc1cc(NS(=O)(=O)c2ccc(NC(=O)c3cccc4cc5ccccc5nc34)cc2)no1`, for which the GI50 was inactive: 18.2 µM.

Regarding `Cc1cc(N(CCC#N)CCC#N)ccc1/C=C1/N=C(c2ccccc2)N(N)C1=O`, the GI50 was inactive: > 100 µM.

Consider `CCOC(=O)c1csc(-c2nc(CCNC(=O)c3ccccc3)sc2Cl)n1`, for which the GI50 is inactive: > 100 µM.

For `NC12CC3CC4C1CC1CC2C(C3)C4(N)C1`, the GI50 is inactive: > 100 µM.

On to `CC(NNC(=O)c1ccncc1)c1ccc(Cl)cc1Cl` (stereo unspecified), for which the GI50 was inactive: > 100 µM.

Take `CC/C(SC)=[N+](\C)[O-]`: the GI50 is inactive: > 100 µM.

With `c1ccc2nn(C3CCCCO3)nc2c1` (stereo unspecified), the GI50 was inactive: > 100 µM.

`CCCCCCCCCCCCP(=O)(O)OCC(N)C(=O)O` (stereo unspecified): the GI50 is inactive: 24.3 µM.

Turning to `CSC1C=C(C(C)C)CCC1(C)SC` (stereo unspecified), the GI50 is inactive: 27.5 µM.

Turning to `CCCCCC(C[N+]1(C)CCOCC1)C(=O)/C=C/c1ccccc1` (stereo unspecified), the GI50 is inactive: 7.05 µM.

As to `CCN(CC)CCCNc1nc(=O)[nH]c(C)c1C(=O)Nc1c2ccccc2nc2ccccc12`, the GI50 was inactive: 14.8 µM.

Take `CCN(CC)CCCNC(=O)C1COc2cc(-c3cc(=O)c4ccccc4o3)ccc2O1` (stereo unspecified): the GI50 is inactive: > 100 µM.

In the case of `OCCCCCCCCCCCOc1ccc(C2OCC3(CO2)COC(c2ccc(OCCCCCCCCCCCO)cc2)OC3)cc1` (stereo unspecified), the GI50 is inactive: > 50 µM.

As for `NS(=O)(=O)c1ccc(NC(=O)C2C(=O)C(=O)N(c3ccc(S(N)(=O)=O)cc3)C2=O)cc1` (stereo unspecified), the GI50 was inactive: > 100 µM.

For `Cc1ccc(S(=O)(=O)N/N=C2/CCCOC2)cc1`, the GI50 is inactive: > 100 µM.

Consider `CCCN(CCCC(NC(C)=O)C(=O)NCc1ccccc1)C(=O)NCCCl` (stereo unspecified), for which the GI50 was inactive: > 100 µM.

For the compound `CCC(=O)N1C(=O)C(CC)(CC)C(=O)N1C(=O)CC`, the GI50 was inactive: > 100 µM.

Consider `CN1CCc2c(sc3ncn(N)c(=N)c23)C1`, for which the GI50 was inactive: > 100 µM.

With `COC(=O)C1=CO[C@@H](OC2CC(CO)C(O)C(O)C2O)[C@@H]2[C@@H](C)[C@@H](OC(=O)/C=C/c3ccccc3)[C@@H](O)[C@H]12.COC(=O)C1=CO[C@@H](OC2CC(CO)C(O)C(O)C2O)[C@@H]2[C@@H](C)[C@@H](OC(=O)c3ccccc3)[C@@H](O)[C@H]12` (stereo partly specified), the GI50 was inactive: > 100 µM.

As for `CO[C@H]1O[C@@H]2CO[C@@H](c3ccccc3)O[C@H]2[C@@H]2C/C=C\CCC[C@@]12O`, the GI50 was inactive: 32.7 µM.

As to `O=C1NC2OCC(O)C(O1)C2O` (stereo unspecified), the GI50 was inactive: > 100 µM.

In the case of `O=C(O)C(CO)NC(=O)n1c2ccccc2c2ccccc21` (stereo unspecified), the GI50 was inactive: > 100 µM.

Turning to `COc1ccc(C2C3=C(COC3=O)Oc3cc4c(cc32)OCO4)cc1` (stereo unspecified), the GI50 is inactive: 39.4 µM.

As to `O=C1c2ccccc2C(=O)c2nc3c(O)cccc3cc21`, the GI50 was inactive: 12.4 µM.

Regarding `C=CCn1c(N)c(C#N)c(C#N)c1-c1ccccc1`, the GI50 was inactive: > 100 µM.

For `O=C1/C(=C/c2ccccc2)CN(C(=O)C(Cl)(Cl)Cl)C/C1=C\c1ccccc1`, the GI50 was inactive: 5.78 µM.

Take `CCOC(=O)c1cc(C)nc2c1c(=O)n(-c1ccccc1)c(=O)n2CCCCN1CCN(c2ccccc2)CC1`: the GI50 is inactive: 53.3 µM.

On to `Cc1cccc(=O)c(O)c1`, for which the GI50 was inactive: 13.5 µM.

As to `COc1ccccc1C(=O)c1c(N2CCCCC2)c(=O)c1=O`, the GI50 is inactive: > 100 µM.

`COC(=O)C(=O)C(C(=O)OC)C(=O)C(=O)Nc1cc(Cl)c(C)cc1S(=O)(=O)O` (stereo unspecified): the GI50 was inactive: > 100 µM.

Consider `Cc1cc2c(c(N)c1C)C(=O)c1ccccc1C2=O`, for which the GI50 was inactive: 16.9 µM.

Regarding `C1=CC(=NN=P(c2ccccc2)(c2ccccc2)c2ccccc2)C=C1`, the GI50 is inactive: > 100 µM.

Take `COCN1C(=O)[C@@H]2CCCN2C(=O)c2ccc(N)cc21`: the GI50 is inactive: > 100 µM.

Take `COC(=O)C(C(=O)C(=O)Nc1nnc(S)[nH]1)c1csc(N)n1` (stereo unspecified): the GI50 is inactive: > 100 µM.

In the case of `O=C1CSc2nnc(CCCCCCCCc3nnc4n3NC(=O)CS4)n2N1`, the GI50 was inactive: > 100 µM.

As to `O=C(NCCN(CCNC(=O)c1cccc(=O)n1O)CCN(CCNC(=O)c1cccc(=O)n1O)CCNC(=O)c1cccc(=O)n1O)c1cccc(=O)n1O`, the GI50 is inactive: > 100 µM.

In the case of `CCCC#CCOC(=O)c1cc([N+](=O)[O-])cc([N+](=O)[O-])c1`, the GI50 is inactive: 45.2 µM.

Turning to `COC(=O)/C(=N/NC(N)=O)C(C(=O)OC)C(=O)C(=O)Nc1ccc(Cl)cc1` (stereo unspecified), the GI50 was inactive: > 100 µM.

`CCOC(=O)c1cc2c(OC(C)=O)ccc(OC(C)=O)c2s1`: the GI50 was inactive: 14.4 µM.

For `CCOC(=O)C(C(=O)OCC)=c1sc(=C(C(=O)OCC)C(=O)OCC)s1`, the GI50 was inactive: > 100 µM.

For `CCNC(=S)N/N=C(/C)c1cccc(/C(C)=N\NC(=S)NCC)n1`, the GI50 was inactive: 1.95 µM.

As to `CC(=O)Nn1c(Cc2ccc(Cl)cc2)nn(C)c1=O`, the GI50 was inactive: > 100 µM.

With `O=C(CSC1=NCCN1)c1ccccc1`, the GI50 was inactive: > 100 µM.

As for `CC1=NN2C(=O)CC(=O)N=C2S1`, the GI50 is inactive: > 100 µM.

On to `CCOC(=O)N1CCN(c2c(N)nc(C)nc2O)CC1`, for which the GI50 was inactive: > 100 µM.

Regarding `O=c1c2ccccc2oc2nccnc12`, the GI50 was inactive: > 100 µM.

As to `O=[N+]([O-])c1ccccc1/C=N/C12CC3CC(CC(C3)C1)C2`, the GI50 was inactive: > 100 µM.

`COc1ccc2c(c1)-c1c(c3ccccc3n1CCN1CCCCC1)CC2`: the GI50 is inactive: 14 µM.

`CCOC(=O)C1(C(N)=O)C(=O)c2ccncc2C1=O` (stereo unspecified): the GI50 was inactive: > 100 µM.

On to `O=C1C2CC[C@@H]3C(=O)C(Cl)(Cl)[C@@H]3CCC2C1(Cl)Cl` (stereo partly specified), for which the GI50 was inactive: 50.8 µM.

As for `N#Cc1c(-c2ccccc2)cc(Nc2ccc(Cl)cc2)n2c1nc1ccccc12`, the GI50 is inactive: 1.44 µM.

As for `O=C1NC2(CCCCC2)C2CCCCC(O)C12` (stereo unspecified), the GI50 was inactive: > 100 µM.

On to `OCC1NC(CO)C(O)C1O` (stereo unspecified), for which the GI50 was inactive: > 100 µM.

Take `COC(=O)C1=CC(=O)OC1(OO)c1ccc(Br)cc1` (stereo unspecified): the GI50 was inactive: > 100 µM.

With `Cc1[nH]c2ccccc2c1/C=N/c1ccc(/N=C/c2c(C)[nH]c3ccccc23)cc1`, the GI50 is inactive: 46 µM.

With `Cc1ccccc1NC(=O)CC(=O)NNCC(=O)Nc1nnc(-c2ccccc2)s1`, the GI50 is inactive: > 100 µM.

Consider `C=C(Br)C(Br)(CCl)CCC(Cl)C(C)C.C=C(Cl)C(Br)(CCl)CCC(Cl)C(C)C` (stereo unspecified), for which the GI50 is inactive: 4.48 µM.

As to `Cc1cc(Br)c(O)c(-c2cscn2)c1`, the GI50 is inactive: 24.6 µM.

In the case of `C[C@H](CCC(=O)NCCS(=O)(=O)O)[C@H]1CC[C@H]2[C@@H]3CC[C@@H]4C[C@H](O)CC[C@]4(C)[C@H]3CC[C@]12C`, the GI50 was inactive: > 100 µM.

Regarding `C=C1CC[C@@H]2C13[C@@H]1[C@H](CC(=O)[C@@]23C)C1(C)C` (stereo partly specified), the GI50 was inactive: 46 µM.

With `COC(=O)C1=C(O)c2cc3c(cc2[C@H](c2cc(OC)c(OC)c(OC)c2)C1C(=O)OC)OCO3` (stereo partly specified), the GI50 was inactive: > 100 µM.

Take `COc1ccc(C2=NC(CO)[C@H](c3ccccc3)O2)cc1OC` (stereo partly specified): the GI50 was inactive: > 100 µM.

Turning to `O=C1C2C3C=CC(C2C(=O)N1CO)C1C2C(=O)N(CO)C(=O)C2C31` (stereo unspecified), the GI50 was inactive: > 100 µM.

In the case of `Cc1c(N)nc([C@H](CC(N)=O)NC[C@H](N)C(N)=O)nc1C(=O)N[C@H](C(=O)N[C@H](C)[C@@H](O)CC(=O)N[C@H](C(=O)NC(O[C@@H]1O[C@@H](C)[C@@H](N)[C@@H](O)[C@H]1O)C(O)c1nc(-c2nc(C(=O)NCCC[S+](C)C)cs2)cs1)[C@@H](C)O)[C@H](O[C@@H]1O[C@@H](CO)[C@@H](O)[C@H](O)[C@@H]1O[C@H]1O[C@H](CO)[C@@H](O)[C@H](OC(N)=O)[C@@H]1O)c1c[nH]cn1` (stereo partly specified), the GI50 is inactive: > 100 µM.

In the case of `COc1cc2nc(-c3ccccc3)cc(O)c2c(OC)c1OC`, the GI50 is inactive: > 100 µM.

`CO[C@H]1C[C@](C)(O)Cc2cc3c(c(O)c21)C(=O)c1c(O)cc2c(c1C3=O)O[C@@H]1O[C@@]2(C)[C@H](O)[C@@H](N(C)C)[C@@H]1O`: the GI50 was inactive: 1.98 µM.

Regarding `CC(=O)c1ccc(Nc2c3ccccc3nc3occc23)cc1`, the GI50 is active: 0.17 µM.

In the case of `Cc1c([N+](=O)[O-])oc2ccc3ccccc3c12`, the GI50 was inactive: > 100 µM.

In general, GI50 refers to the concentration that inhibits growth by half.

For the origin of these results see ChEMBL document CHEMBL1201862, “PubChem BioAssay data set” (2004).
